Source: PubChem BioAssay AID1347165 (National Center for Advancing Translational Sciences (NCATS), 2019)
Out of some 220,000 compounds screened, about 5,700 (2.6%) were called active. This list was built around the results that the source calls inconclusive (neither active nor inactive); the mix of calls is not that of the screen. The call rests on the fitted dose curve; in most records, active means well fitted inhibition curve with a large enough effect; inconclusive means small, poorly fitted or top-dose-only effect; inactive means no such curve, though single readings can be large or run the other way. Potencies beside an inconclusive call are fits to weak or partial responses and may not hold up.

biological target: Lysine-specific demethylase 5B (Homo sapiens) (UniProt Q9UGL1); assay: Primary screen for KDM5B Histone Demethylases FDH-coupled qHTS; conditions: FDH-coupled NADH fluorescence (FDH is formaldehyde dehydrogenase); series mostly up to 57.7 µM; further: nearly all actives have a fitted effect of over 70% in size
Sequence of UniProt Q9UGL1 (Q9UGL1 whole entry, looked up): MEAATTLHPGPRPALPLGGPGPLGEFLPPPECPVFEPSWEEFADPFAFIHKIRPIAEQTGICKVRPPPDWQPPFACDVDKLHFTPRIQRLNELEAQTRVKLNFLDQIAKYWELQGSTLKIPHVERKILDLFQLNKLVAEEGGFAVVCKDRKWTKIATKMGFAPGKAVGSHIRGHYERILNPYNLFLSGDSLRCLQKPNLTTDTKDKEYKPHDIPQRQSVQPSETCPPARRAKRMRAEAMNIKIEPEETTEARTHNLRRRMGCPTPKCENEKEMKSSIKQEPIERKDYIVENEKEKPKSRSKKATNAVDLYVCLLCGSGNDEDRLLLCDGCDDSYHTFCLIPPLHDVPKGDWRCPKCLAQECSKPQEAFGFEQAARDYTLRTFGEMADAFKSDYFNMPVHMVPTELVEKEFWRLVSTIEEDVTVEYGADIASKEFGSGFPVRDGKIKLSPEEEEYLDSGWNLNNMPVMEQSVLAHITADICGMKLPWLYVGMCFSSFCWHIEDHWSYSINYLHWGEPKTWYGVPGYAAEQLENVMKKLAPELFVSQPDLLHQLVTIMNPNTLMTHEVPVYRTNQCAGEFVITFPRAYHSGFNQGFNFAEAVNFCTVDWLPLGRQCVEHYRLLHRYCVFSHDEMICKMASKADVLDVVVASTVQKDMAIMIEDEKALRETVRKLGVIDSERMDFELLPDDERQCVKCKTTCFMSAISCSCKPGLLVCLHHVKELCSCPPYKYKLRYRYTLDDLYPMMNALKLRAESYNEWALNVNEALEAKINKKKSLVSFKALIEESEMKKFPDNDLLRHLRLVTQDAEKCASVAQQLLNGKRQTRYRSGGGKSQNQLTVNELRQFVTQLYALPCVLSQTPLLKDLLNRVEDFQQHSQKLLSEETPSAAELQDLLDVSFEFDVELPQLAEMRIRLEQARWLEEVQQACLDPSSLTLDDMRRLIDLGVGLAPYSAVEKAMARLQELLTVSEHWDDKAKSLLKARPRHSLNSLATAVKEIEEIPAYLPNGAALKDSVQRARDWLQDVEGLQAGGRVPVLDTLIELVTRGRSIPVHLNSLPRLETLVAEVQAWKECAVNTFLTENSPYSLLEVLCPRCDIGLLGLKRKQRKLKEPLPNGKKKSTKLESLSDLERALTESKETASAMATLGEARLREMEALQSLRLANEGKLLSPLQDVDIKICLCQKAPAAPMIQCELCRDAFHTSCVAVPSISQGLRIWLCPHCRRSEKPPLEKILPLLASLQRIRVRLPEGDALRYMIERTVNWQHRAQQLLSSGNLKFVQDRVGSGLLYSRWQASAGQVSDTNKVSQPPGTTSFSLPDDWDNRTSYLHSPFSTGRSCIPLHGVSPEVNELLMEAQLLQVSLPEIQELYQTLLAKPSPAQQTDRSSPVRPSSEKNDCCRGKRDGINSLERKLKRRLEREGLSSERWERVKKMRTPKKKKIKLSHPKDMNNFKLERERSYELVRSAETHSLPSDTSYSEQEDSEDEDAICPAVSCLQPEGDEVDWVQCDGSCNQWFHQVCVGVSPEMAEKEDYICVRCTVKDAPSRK
Method in brief: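 Measured: NADH fluorescence change, 30 min, RT. System: KDM5BΔAP 200 nM final, H3K4me3 peptide, α-KG, Fe(II), ascorbate, NAD⁺ plus FDH, pH 7.5 HEPES. Compounds: titrated, 10 min pre-incubation with enzyme.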
Potency means the concentration at half of the fitted maximal effect; tags describe the fitted curve by direction and shape.

Row | SMILES | Potency
1 | OCC1CN(c2ncccn2)CC12CCN(Cc1ccco1)CC2 (configuration not stated) | active: 28.2 µM
2 | CCOc1cc(CNCC(C)O)ccc1OCc1ccc(C)cc1 (configuration not stated) | inconclusive: 28.2 µM [inhibitor, partial curve, poor fit]
3 | CCOC(=O)c1sc2nc(CN3CCC(C)CC3)[nH]c(=O)c2c1C | inconclusive: 39.8 µM [inhibitor, single point]
4 | Cc1ccccc1C(=O)Nc1cccc(C(=O)OCc2cc(=O)n3c(C)csc3n2)c1 | inconclusive: 14.1 µM [inhibitor, partial curve, poor fit]
5 | CCCCCNC(=O)C(C#N)c1nc2ccccc2nc1OC(C)C (configuration not stated) | inconclusive: 17.8 µM [inhibitor, partial curve, poor fit]
6 | COc1ccc(CNC(=O)c2ccc(NC(=O)N3CCSc4ncccc43)cc2)c(OC)c1 | inconclusive: 35.5 µM [inhibitor, partial curve, poor fit]
7 | COCCNc1ncc(C(=O)O)c(C)n1 | inconclusive: 31.6 µM [inhibitor, partial curve, poor fit]
8 | O=C(O)Cn1ccc2cc(OCC3CCN(C(=O)C4CCCC4)CC3)cnc21 | active: 35.5 µM
9 | Cc1cccc(C(=O)Nc2ccc3nc(SCC(=O)N4CCc5ccccc54)sc3c2)c1 | inconclusive: 31.6 µM [inhibitor, partial curve, poor fit]
10 | CC(C)CCN1CCCC(c2nn(-c3ccccc3)c(=O)[nH]2)C1 (configuration not stated) | inconclusive: 5.01 µM [inhibitor, full curve, poor fit]
11 | COc1ccc(NC(=O)c2ncoc2-c2ccco2)cc1Cl | inconclusive: 6.31 µM [inhibitor, partial curve, poor fit]
12 | Clc1cccc(Nc2cnc3ccc(N4CCOCC4)nn23)c1 | active: 31.6 µM
13 | CCCN1CCN(C(=O)Cn2c(C)ccc(NC(=O)Nc3ccccc3)c2=O)CC1 | active: 25.1 µM
14 | CCOC(=O)c1cccc(NC(=O)C2CCN(S(=O)(=O)c3c(C)noc3/C=C/c3ccc(C)cc3)CC2)c1 | inconclusive: 3.16 µM [inhibitor, full curve, poor fit]
15 | Cc1cc(C)c(NC(=O)COc2ccc(C(=O)Nn3c(C)ccc3C)cc2)c(C)c1 | inactive
16 | CCc1cc(=O)n(CC(=O)Nc2cc(OC)c(OC)c(OC)c2)c(-c2ccccc2)n1 | inactive
17 | CCCCNC(=O)c1ccc2c(c1)n(Cc1cccc(OC)c1)c(=O)c1ccnn12 | active: 35.5 µM
18 | CC(C)c1cc(NCCc2nc(N)cc(=O)[nH]2)n2nccc2n1 | inconclusive: 20 µM [inhibitor, partial curve, poor fit]
19 | Cc1ccc(CNC(=O)c2nnn3cc(-c4ccc(F)cc4)[nH]c(=O)c23)cc1 | inconclusive: 35.5 µM [inhibitor, single point]
20 | O=C(NCc1cccnc1OCC(F)(F)F)c1ccc(Cl)o1 | inactive
21 | COc1cc(C#N)ccc1OCc1ccccc1Br | inactive

Row | SMILES | Potency
22 | COc1ccccc1-c1cc(-c2ccc(=O)[nH]c2)c2cncn2c1 | inconclusive: 1.12 µM [inhibitor, full curve, poor fit]
23 | COC(=O)c1ccccc1NC(=O)c1sc2nc(C)cc(C)c2c1NC(=O)c1ccccc1Cl | inconclusive: 70.8 µM [inhibitor, single point]
24 | Cc1ccccc1-n1nc(-c2c(C)nc3scc(CC(=O)N4CCCC4)n3c2=O)cc1C | inconclusive: 28.2 µM [inhibitor, partial curve, poor fit]
25 | CCCN(C)c1nccnc1OC1CCN(C(=O)c2ccc(OC)nc2OC)C1 (configuration not stated) | inactive
26 | Cc1ccc(-c2cn3c(n2)CO[C@@H](CNCc2ccccc2Cl)C3)cc1 | inconclusive: 63.1 µM [inhibitor, partial curve, poor fit]
27 | CO[C@H]1C(=O)N(C(C)C)[C@H]1C1CCN(C(=O)c2cccc3[nH]ccc23)CC1 | inconclusive: 25.1 µM [inhibitor, partial curve, poor fit]
28 | COc1cccc(CN2CCOC3CCN(CCCc4ccccc4)CC3C2=O)c1 (configuration not stated) | inactive
29 | O=c1oc2ccccc2c(N2CCCC2)c1NS(=O)(=O)c1ccc(Br)cc1 | inactive
30 | Cc1cc(Nc2cccc(O)c2)c2cccc(Br)c2n1 | inconclusive: 39.8 µM [inhibitor, single point]
31 | Cc1ccc(NC(=O)c2ncoc2-c2cccs2)c(C)c1 | inactive
32 | O=C1CC2CCN(Cc3ccc(Cl)cc3)CC2CCN1 (configuration not stated) | inconclusive: 100 µM [inhibitor, partial curve, poor fit]
33 | O=C(Cc1n[nH]c(=O)c2ccccc12)NC1CCCc2c1[nH]c1ccccc21 (configuration not stated) | inconclusive: 14.1 µM [inhibitor, partial curve]
34 | CC1(COc2ccccc2)COc2ccc(C(=O)NCc3cccnc3)cc2N1 (configuration not stated) | active: 35.5 µM
35 | Cc1ccc(Nc2nc(-c3ccc(S(=O)(=O)N4CCCC4)cc3)cs2)cc1C | inconclusive: 20 µM [inhibitor, partial curve, poor fit]
36 | CCCN1CCC2(CCN([S+](=O)([O-])c3ccc(C)cc3)CC2)Oc2ccccc21 | inconclusive: 35.5 µM [inhibitor, partial curve, poor fit]
37 | CC(C)c1cc(C(=O)NCC2CCN(c3cnn(C)c(=O)c3)C2)n(C)n1 (configuration not stated) | inactive
38 | CSc1nnc(-c2ccc(C(F)(F)F)nc2C)o1 | inconclusive: 28.2 µM [inhibitor, partial curve, poor fit]
39 | COCCN1CCNc2cc(Nc3cccc(OC)c3)ncc2C1 | inconclusive: 35.5 µM [inhibitor, partial curve, poor fit]
40 | O=C(/C=C/c1cn(CC(O)CN2CCc3ccccc32)c2ccccc12)c1ccc(Br)cc1 (configuration not stated) | inconclusive: 3.55 µM [inhibitor, partial curve, poor fit]
41 | O=Cc1ccc(-c2cc(C(F)(F)F)ccc2Cl)cc1 | inconclusive: 50.1 µM [inhibitor, partial curve, poor fit]
42 | Cc1nn(CC(=O)Nc2ccc3c(c2)nc2n3CCN(CC(C)C)C2)c(=O)c2ccccc12 | inconclusive: 25.1 µM [inhibitor, partial curve, poor fit]
